In one experiment the target is T1, PpsR2-mVenus-CAAX (Rhodopseudomonas palustris).
T1 construct: also called PpsR2(C439S)-20aaLinker-mVenus-Kras4BCT; pKA-140; not shown: mVenus, engineered yellow fluorescent protein
T1 chain: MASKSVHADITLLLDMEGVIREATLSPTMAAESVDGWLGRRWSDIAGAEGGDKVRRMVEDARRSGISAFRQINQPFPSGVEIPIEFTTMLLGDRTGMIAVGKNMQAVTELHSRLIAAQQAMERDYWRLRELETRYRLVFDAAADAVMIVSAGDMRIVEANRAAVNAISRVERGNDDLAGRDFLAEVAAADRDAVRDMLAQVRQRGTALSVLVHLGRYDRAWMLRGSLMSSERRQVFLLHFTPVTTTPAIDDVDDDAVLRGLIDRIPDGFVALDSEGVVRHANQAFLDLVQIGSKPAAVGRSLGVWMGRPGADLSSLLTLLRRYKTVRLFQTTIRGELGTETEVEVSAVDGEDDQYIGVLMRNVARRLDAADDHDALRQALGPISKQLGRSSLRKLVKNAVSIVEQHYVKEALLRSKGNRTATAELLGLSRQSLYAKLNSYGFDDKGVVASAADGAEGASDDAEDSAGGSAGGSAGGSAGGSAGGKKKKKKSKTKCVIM
The experiment in a line: translocation assay in HeLa cells, 650 nm light after 740 nm light.

Experiment [1] addresses T2, NLS-PpsR2-mVenus (Rhodopseudomonas palustris).
T2 construct: Localized to the nucleus of HeLa cells; also called NLS-PpsR2(C439S)-20aaLinker-mVenus; pCMV-160; not shown: mVenus, engineered yellow fluorescent protein
T2 chain: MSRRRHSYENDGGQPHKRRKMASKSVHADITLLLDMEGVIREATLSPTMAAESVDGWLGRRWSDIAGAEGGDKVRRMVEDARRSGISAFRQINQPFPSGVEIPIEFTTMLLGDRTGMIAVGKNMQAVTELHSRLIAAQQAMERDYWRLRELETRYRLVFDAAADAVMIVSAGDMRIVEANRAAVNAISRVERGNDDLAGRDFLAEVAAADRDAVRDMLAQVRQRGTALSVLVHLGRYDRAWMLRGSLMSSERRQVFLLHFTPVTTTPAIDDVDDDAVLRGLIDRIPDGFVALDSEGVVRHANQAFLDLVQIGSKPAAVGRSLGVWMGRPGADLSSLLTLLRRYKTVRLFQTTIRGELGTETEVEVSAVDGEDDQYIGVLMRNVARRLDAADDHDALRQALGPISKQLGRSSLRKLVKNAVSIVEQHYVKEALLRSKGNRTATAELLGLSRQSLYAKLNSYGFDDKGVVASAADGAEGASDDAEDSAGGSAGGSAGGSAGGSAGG
Briefly: nuclear recruitment assay in HeLa cells, 740 nm light against darkness.

Experiment [2] concerns the target T2, NLS-PpsR2-mVenus. Briefly: nuclear recruitment assay in HeLa cells, epifluorescence microscopy, darkness.
Experiment [3] addresses T2, NLS-PpsR2-mVenus. Briefly: nuclear recruitment assay in HeLa cells, epifluorescence microscopy, 740 nm light.

B1: BphP1-mCherry (other)
chain: [omitted - about 300 residues]FAQSQSELFVQRLEQRMIEAITREGDWRAAIFDTSQSILQPLHADGCALVYEDQIRTIGDVPSTQDVREIAGWLDRQPRAAVTSTASLGLDVPELAHLTRMASGVVAAPISDHRGEFLMWFRPERVHTVTWGGDPKKPFTMGDTPADLSPRRSFAKWHQVVEGTSDPWTAADLAAARTIGQTVADIVLQFRAVRTLIAREQYEQFSSQVHASMQPVLITDAEGRILLMNDSFRDMLPAGSPSAVHLDDLAGFFVESNDFLRNVAELIDHGRGWRGEVLLRGAGNRPLPLAVRADPVTRTEDQSLGFVLIFSDATDRRTADAARTRFQEGILASARPGVRLDSKSDLLHEKLLSALVENAQLAALEITYGVETGRIAELLEGVRQSMLRTAEVLGHLVQHAARTAGSDSSSNGSQNKKDSAGSAGSAG
modifications: endogenous biliverdin chromophore of the HeLa cells
notes: Expressed in the cytoplasm of HeLa cells; also called pKA-141; not shown: mCherry, engineered red fluorescent protein
As to B1, the “fold higher initial rate of cytoplasmic signal recovery under 650 nm light against darkness” value in the experiment with PpsR2-mVenus-CAAX worked out at 1.6 fold. For the same molecule, in the experiment with NLS-PpsR2-mVenus [1], the “fold increase of the BphP1-mCherry signal in nuclei of illuminated cells” value is around 3.5 fold. For the same molecule, in the experiment with NLS-PpsR2-mVenus [2], the “mCherry intensity ratio between the nucleus and cytoplasm, in darkness” value was around 0.5. In the experiment with NLS-PpsR2-mVenus [3], the “mCherry nucleus/cytoplasm ratio, after 740 nm illumination” value worked out at 1.8.

The values above are taken from US20180346523A1 (ALBERT EINSTEIN COLLEGE OF MEDICINE, published 2018).
